Experimental data published in a collection of fitness landscapes (doi:10.1126/science.1257360).
The other results are listed elsewhere or left out.

B1: PhoQ; a variant is named by its letters at X, in order, P23837 (parent)
chain: MKKLLRLFFPLSLRVRFLLATAAVVLVLSLAYGMVALIGYSVSFDKTTFRLLRGESNLFYTLAKWENNKLHVELPENIDKQSPTMTLIYDENGQLLWAQRDVPWLMKMIQPDWLKSNGFHEIEADVNDTSLLLSGDHSIQQQLQEVREDDDDAEMTHSVAVNVYPATSRMPKLTIVVVDTIPVELKSSYMVWSWFIYVLSANLLLVIPLLWVAAWWSLRPIEALAKEVRELEEHNRELLNPATTRELTSLVRNLNRLLKSERERYDKYRTTLTDLTHSLKTPLXXLQXXLRSLRSEKMSVSDAEPVMLEQISRISQQIGYYLHRASMRGGTLLSRELHPVAPLLDNLTSALNKVYQRKGVNISLDISPEISFVGEQNDFVEVMGNVLDNACKYCLEFVEISARQTDEHLYIVVEDDGPGIPLSKREVIFDRGQRVDTLRPGQGVGLAVAREITEQYEGKIVAGESMLGGARMEVIFGRQHSAPKDE

Variants of: B1
Assay: enrichment ratio after two sorts for PhoP signalling (ratio (wild type AVST 3.29)); higher = more functional
Conditions: with PhoP (E. coli)

Row | Variant | enrichment ratio
1 | KQSQ | ≤ 0.25
2 | HDNQ | 2.96
3 | NSPC | ≤ 0.25
4 | PIAT | ≤ 0.25
5 | GIHW | ≤ 0.25
6 | TLAR | 0.326
7 | PTYK | ≤ 0.25
8 | GSQG | ≤ 0.25
9 | DAVE | ≤ 0.25
10 | PKFN | ≤ 0.25
11 | GCCG | 18.1
12 | TIFI | 0.264
13 | KRND | ≤ 0.25
14 | WDIL | ≤ 0.25
15 | QRYP | ≤ 0.25
16 | DTYT | ≤ 0.25
17 | KCMF | ≤ 0.25
18 | DCTI | ≤ 0.25
19 | MKTY | ≤ 0.25
20 | WEFY | ≤ 0.25
21 | AIPS | ≤ 0.25
22 | WIDR | ≤ 0.25
23 | KQPT | ≤ 0.25
24 | GPHP | ≤ 0.25
25 | RQGR | ≤ 0.25

Row | Variant | enrichment ratio
26 | FTML | 12
27 | KHCL | ≤ 0.25
28 | DPGY | ≤ 0.25
29 | WKCG | ≤ 0.25
30 | FQVD | ≤ 0.25
31 | HHPE | ≤ 0.25
32 | MTHY | ≤ 0.25
33 | FFGS | ≤ 0.25
34 | AYQG | ≤ 0.25
35 | RWCN | ≤ 0.25
36 | GYMS | ≤ 0.25
37 | TYRV | ≤ 0.25
38 | WASG | ≤ 0.25
39 | SITQ | 7.2
40 | DWEN | ≤ 0.25
41 | FFCM | 0.845
42 | HPIN | ≤ 0.25
43 | MHPC | ≤ 0.25
44 | DPNY | ≤ 0.25
45 | YLTP | ≤ 0.25
46 | YCCK | ≤ 0.25
47 | SSAK | ≤ 0.25
48 | VPPD | ≤ 0.25
49 | EVPK | ≤ 0.25
50 | NDME | ≤ 0.25

Row | Variant | enrichment ratio
51 | GLDT | ≤ 0.25
52 | IYPT | ≤ 0.25
53 | MNEH | ≤ 0.25
54 | LMPG | ≤ 0.25
55 | SYVM | 0.307
56 | GTSG | 0.936
57 | LIHI | ≤ 0.25
58 | WEYM | ≤ 0.25
59 | YPVW | ≤ 0.25
60 | DRPI | ≤ 0.25
61 | KDHW | ≤ 0.25
62 | SYEP | ≤ 0.25
63 | SQHE | ≤ 0.25
64 | WEEV | ≤ 0.25
65 | WYKN | ≤ 0.25
66 | MSFG | 4.23
67 | PQCW | ≤ 0.25
68 | RAMH | ≤ 0.25
69 | QYYI | ≤ 0.25
70 | DQTY | ≤ 0.25
71 | WISY | ≤ 0.25
72 | TKQN | ≤ 0.25
73 | GRQI | ≤ 0.25
74 | SRCC | 0.803
75 | IPCN | ≤ 0.25

Row | Variant | enrichment ratio
76 | IRVL | ≤ 0.25
77 | VSRI | ≤ 0.25
78 | HQKG | ≤ 0.25
79 | WTMC | ≤ 0.25
80 | QPQP | ≤ 0.25
81 | TLLP | 0.257
82 | QQHQ | ≤ 0.25
83 | TVLI | 0.851
84 | WRIK | ≤ 0.25
85 | HMRP | ≤ 0.25
86 | YTHC | ≤ 0.25
87 | WQWH | ≤ 0.25
88 | YTAD | ≤ 0.25
89 | IMTH | ≤ 0.25
90 | VKIK | ≤ 0.25
91 | MTVA | ≤ 0.25
92 | YVLM | 4.78
93 | DKAY | ≤ 0.25
94 | YVLQ | 2.38
95 | PIRS | ≤ 0.25
96 | PQRT | ≤ 0.25
97 | TMEL | 15.3
98 | NMEC | ≤ 0.25
99 | NMAN | ≤ 0.25
100 | AGYT | 0.289

Row | Variant | enrichment ratio
101 | YGYV | ≤ 0.25
102 | GIKN | ≤ 0.25
103 | SSDN | ≤ 0.25
104 | PMKD | ≤ 0.25
105 | VECV | 9.31
106 | AFIN | ≤ 0.25
107 | GYMG | ≤ 0.25
108 | INFR | ≤ 0.25
109 | YVTI | 0.32
110 | PSYM | ≤ 0.25
111 | NYMN | ≤ 0.25
112 | HTKS | ≤ 0.25
113 | SVIM | ≤ 0.25
114 | PYKR | ≤ 0.25
115 | SLQY | ≤ 0.25
116 | TNGG | 7.52
117 | ARTL | 8.25
118 | PAYK | ≤ 0.25
119 | TAHG | 1.9
120 | FLGH | ≤ 0.25
121 | VDWL | ≤ 0.25
122 | TEVL | 9.29
123 | AGPL | ≤ 0.25
124 | RSCI | ≤ 0.25
125 | VYTM | ≤ 0.25

Row | Variant | enrichment ratio
126 | KNAS | ≤ 0.25
127 | SHPP | ≤ 0.25
128 | VAHM | 0.984
129 | MTVV | ≤ 0.25
130 | EKSG | ≤ 0.25
131 | ELQP | ≤ 0.25
132 | IDFV | ≤ 0.25
133 | LNCG | 0.325
134 | YCRN | ≤ 0.25
135 | WIYG | ≤ 0.25
136 | LILW | ≤ 0.25
137 | TLPW | ≤ 0.25
138 | RYVN | ≤ 0.25
139 | IFTI | ≤ 0.25
140 | IALF | ≤ 0.25
141 | WTYS | ≤ 0.25
142 | LQHR | ≤ 0.25
143 | QKFF | ≤ 0.25
144 | LAAP | ≤ 0.25
145 | RVEI | ≤ 0.25
146 | PSPI | ≤ 0.25
147 | EMFQ | ≤ 0.25
148 | KSHW | ≤ 0.25
149 | GVTQ | ≤ 0.25
150 | KIGV | ≤ 0.25

Row | Variant | enrichment ratio
151 | MQTY | ≤ 0.25
152 | IERR | ≤ 0.25
153 | MGMH | ≤ 0.25
154 | FTRN | ≤ 0.25
155 | YCTM | 0.558
156 | QNVT | ≤ 0.25
157 | HDKG | ≤ 0.25
158 | HWHS | ≤ 0.25
159 | QQLM | ≤ 0.25
160 | SLCY | 2.99
161 | EEPM | ≤ 0.25
162 | GMAC | ≤ 0.25
163 | GQFY | ≤ 0.25
164 | ITVH | ≤ 0.25
165 | WHAY | ≤ 0.25
166 | LNKP | ≤ 0.25
167 | KEFD | ≤ 0.25
168 | MDNF | ≤ 0.25
169 | YMLI | ≤ 0.25
170 | FRCD | ≤ 0.25
171 | MWWP | ≤ 0.25
172 | YGFS | ≤ 0.25
173 | NMEF | ≤ 0.25
174 | VCQL | ≤ 0.25
175 | AISS | 11.1

Row | Variant | enrichment ratio
176 | APTS | ≤ 0.25
177 | GSWD | ≤ 0.25
178 | HVCR | ≤ 0.25
179 | FRHP | ≤ 0.25
180 | WVMK | ≤ 0.25
181 | KTTV | ≤ 0.25
182 | TTEW | ≤ 0.25
183 | MTRT | ≤ 0.25
184 | IMVV | ≤ 0.25
185 | WFWD | ≤ 0.25
186 | VRLP | ≤ 0.25
187 | FWHG | ≤ 0.25
188 | SCWK | ≤ 0.25
189 | GGSE | ≤ 0.25
190 | VSWR | ≤ 0.25
191 | GNGH | ≤ 0.25
192 | IFNK | ≤ 0.25
193 | FFPV | ≤ 0.25
194 | DLRK | ≤ 0.25
195 | ATGN | 3.43
